Results from ChEMBL document CHEMBL4888484, “Replenishing the malaria drug discovery pipeline: Screening and hit evaluation of the MMV Hit Generation Library 1 (HGL1) against asexual blood stage Plasmodium falciparum ,using a nano luciferase reporter read-out” (2022).
About 540 (0.36%) of roughly 150,000 compounds showed an effect of 50% or more. Some of the results follow.

These compounds were tested on Plasmodium falciparum (assay: Primary screen in NF54 nanoGlo assay, in single point, at 2uM, 72h; a lower Z score goes with more inhibition). Conditions: timepoint 72 hour.
Assay type: functional, Erythrocyte
`Cc1cc(-c2ccc(C(=O)N(C)CCn3ccnc3C)cc2)c(=O)[nH]n1` was tested, and the “% Inhibition” value was -11% and the Z score was 1.63. `COC(=O)C1(CNC2CCC(C)C(C)C2)CCOCC1` (centres undefined) was tested, and the “% Inhibition” value was 13% and the Z score was -2.05. For `Cc1cc(C(=O)N2CCN(C(=O)Cc3c[nH]c4ccccc34)CC2)c2c(=O)[nH]n(C)c2n1`, the “% Inhibition” value was 0% and the Z score was 0.01. In the case of `CC(C)c1ocnc1C(=O)N1CCCC2CCCC21` (centres undefined), the “% Inhibition” value was -2% and the Z score was 0.24. In the case of `Cc1cc(C)c2nonc2c1S(=O)(=O)N1C[C@H](C(C)C)[C@@H](N(C)C)C1`, the “% Inhibition” value was 6% and the Z score was -1.11. For `Cc1cccc(CN(Cc2cccc(C)n2)C(=O)c2cc[nH]c2C)n1`, the “% Inhibition” value was -1% and the Z score was 0.22. With `c1coc(CN2CCC(N3CCn4cccc4C3)CC2)c1` the “% Inhibition” value was -9% and the Z score was 1.23. For `CC1CN(CC(=O)Nc2ccc(CN3CCOCC3)cc2)CC(C)O1` (centres undefined), the “% Inhibition” value was -6% and the Z score was 0.58. For `COc1ccc(CC(=O)N2CC[C@@]3(CCC(=O)N3)C2)cc1`, the “% Inhibition” value was -6% and the Z score was 0.79. `Cc1cc(C(=O)N2CCOCC2)ccc1N(C)S(=O)(=O)c1ccccc1` was tested, and the “% Inhibition” value was -3% and the Z score was 0.36. In the case of `O=C(NOc1ccc(Cl)c(Cl)c1)[C@@H]1COCCO1`, the “% Inhibition” value was -15% and the Z score was 2.83. In the case of `CCCCN1CCN(c2ncnc3c2c(C)nn3C)CC1=O`, the “% Inhibition” value was -6% and the Z score was 1.15. With `NC1CCN(C(=O)c2cnn(-c3ncccc3Cl)c2C(F)(F)F)CC1` the “% Inhibition” value was -3% and the Z score was 0.36. `Cc1nn(C)c(Cl)c1S(=O)(=O)Oc1ccc2c(c1)CCC2` was tested, and the “% Inhibition” value was -7% and the Z score was 1.12. For `Cc1n[nH]c(C)c1Cc1n[nH]c(=O)n1CC1CCCCC1`, the “% Inhibition” value was -9% and the Z score was 1.51. For `CCn1nccc1CN1CCC(O)(C(F)(F)F)CC1`, the “% Inhibition” value was 7% and the Z score was -0.69. In the case of `Cc1nnc(NC(=O)c2ncoc2-c2ccco2)n1C`, the “% Inhibition” value was 31% and the Z score was -3.46. With `Cc1nccc(O[C@H]2CCN(C(=O)Cc3ccc4c(c3)OCO4)C2)n1` the “% Inhibition” value was -9% and the Z score was 1.46. With `CC(=O)c1ccc(C(=O)N2CCC[C@H](C(=O)c3ccc(Oc4ccccc4)cc3)C2)cc1` the “% Inhibition” value was -9% and the Z score was 1.25. In the case of `CCC(NC(=O)c1cccn1C(C)C)[C@H]1C[C@H](O)C1` (some centres undefined), the “% Inhibition” value was -7% and the Z score was 1.29. `Cc1ccc(NC(=O)c2ccc(COc3cc(Cl)ccc3Cl)o2)nc1` was tested, and the “% Inhibition” value was 10% and the Z score was -1.21. For `O=C(N[C@H]1CCc2n[nH]c(=O)cc2C1)c1cccc(Cl)c1Cl`, the “% Inhibition” value was -13% and the Z score was 2.15. In the case of `CC(C)(C)OC(=O)N1C2CCC1CC(Cn1cnc(C#N)n1)C2` (centres undefined), the “% Inhibition” value was 8% and the Z score was -0.85. With `COc1ccc2cc1Oc1cccc(c1)CO[C@H]1CN(Cc3ccc(N4CCCC4=O)cc3)C[C@@H]1NC(=O)CN(C)C2` the “% Inhibition” value was -18% and the Z score was 2.3. `Cc1ccc(F)cc1C(=O)N[C@H](c1ccc(F)cc1)c1cnn(C)c1` was tested, and the “% Inhibition” value was -9% and the Z score was 1.63. For `CC[C@H](O)CN(Cc1cccn1Cc1ccccc1C)CC1CCCCC1`, the “% Inhibition” value was -8% and the Z score was 0.7. `O=C(NS(=O)(=O)Cc1cc(Cl)ccc1F)c1ccoc1` was tested, and the “% Inhibition” value was -5% and the Z score was 0.78. `COc1ccc(Br)cc1CN(CCO)CCO` was tested, and the “% Inhibition” value was -1% and the Z score was 0.17. In the case of `COCC(O)CNC(C)c1cc(Cl)cc(Cl)c1F` (centres undefined), the “% Inhibition” value was -14% and the Z score was 2.07. With `Cc1ccc(S(=O)(=O)N(c2ccc(F)cc2)C2CCN(Cc3ccoc3)CC2)cc1` the “% Inhibition” value was -5% and the Z score was 0.81. For `O=C(c1cccnc1)N1CCN(Cc2ccccc2)[C@@H]2CS(=O)(=O)C[C@@H]21`, the “% Inhibition” value was -13% and the Z score was 1.69. With `CC(=O)NC[C@@H]1CN(C(=O)c2csc(CC(C)C)n2)C[C@H]1c1cncn1C` the “% Inhibition” value was -4% and the Z score was 0.61. With `O=C(c1cccc(-c2cnc3ncnn3c2)c1)N1CCC(F)(F)CC1` the “% Inhibition” value was -2% and the Z score was 0.39. `CC(C)(C)OC(=O)CC[C@H]1CCCCN1Cc1csnn1` was tested, and the “% Inhibition” value was -16% and the Z score was 2.46. In the case of `O=C(c1nccc2cccnc12)N(C[C@H]1CCCO1)c1ccncc1`, the “% Inhibition” value was -12% and the Z score was 2.33. In the case of `CCc1cc(CNC(=NC)N(C)Cc2ccc3c(c2)OCCO3)on1`, the “% Inhibition” value was -6% and the Z score was 1.06. In the case of `CCC(=O)N(CCN(C)C)Cc1c(-c2ccccc2)noc1N1CCCCC1`, the “% Inhibition” value was 35% and the Z score was -1.74. `Cc1ccc(CC2(CCC(=O)NC(C)CCCC(C)(C)O)CCC(=O)N2)cc1` (centres undefined) was tested, and the “% Inhibition” value was 9% and the Z score was -1.2. In the case of `Cc1ccc(OC2CCN(S(=O)(=O)c3cccc(Cl)c3C)CC2)nn1`, the “% Inhibition” value was -12% and the Z score was 2.22. With `Cc1cc(C(=O)Nc2cnn(Cc3ccc(F)cc3Cl)c2)c2cnn(C)c2n1` the “% Inhibition” value was 24% and the Z score was -2.72. In the case of `O=C(COc1ccc2c(c1)C(=O)CC2)NCc1c(F)cccc1F`, the “% Inhibition” value was 21% and the Z score was -2.72. In the case of `Cc1occc1C(=O)N[C@H]1C[C@@H](c2nnc(Cn3cccn3)n2C)C1`, the “% Inhibition” value was 7% and the Z score was -1.42.
